Values marked as one replicate rest on one cluster of the flow cell; about a third of the high ones do not repeat.
Tested on: ATP
Assay: switch fluorescence ratio, 500 uM ATP over buffer (Cy3 cluster intensity, sum of 5 cycles each) (fold (ratio)); higher = stronger signal-on switching upon ATP binding; sequences stand for … in TCGTCGGCAGCGTCAGATGTGTATAAGAGACAGTTTTTTTTTTTTTTTTTTTTTTTTT…TC
Details: aptamer strand: ATP DNA aptamer (quencher-CACCTGGGGGAGTATTGCGGAGGAAGG + anchor), 100 nM annealed; ATP concentration: 500 uM; one replicate
Outline: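 After annealing to 100 nM quencher-labelled ATP aptamer, Cy3-labelled switching-strand clusters on a modified Illumina MiSeq flow-cell were imaged in selection buffer. A second image followed after 15 min with 500 uM ATP at 22 °C, and five such buffer/ATP cycles were done, each separated by NaOH stripping and re-annealing. The fluorescence ratio, averaged per switch-domain sequence, is summed target-cycle over summed buffer-cycle Cy3 intensity per cluster, with clusters outside 100-1000 RFU excluded.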
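Note: ATP exposure 15 min at 22 °C before imaging.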

Row | Sequence | switch fluorescence ratio
1 | TCTTGCCACG | 1.01
2 | TCTTGCGAGT | 0.982
3 | TCTTGCTATG | 1.03
4 | TCTTGGAGAC | 0.965
5 | TCTTGGCAGA | 1.03
6 | TCTTGGTAA | 1.01
7 | TCTTGTGAGC | 1.03
8 | TCTTGTGTGA | 1.02
9 | TCTTTACCTC | 0.987
10 | TCTTTCAACA | 0.996
11 | TCTTTGAGGG | 0.946
12 | TCTTTGAGTG | 0.957
13 | TCTTTGATCA | 1.05
14 | TCTTTGCCCA | 1.27
15 | TCTTTGGGGC | 0.985
16 | TCTTTGTCGC | 1.02
17 | TCTTTTGTAG | 0.998
18 | TGAAAATAAT | 0.985
19 | TGAAACACGT | 0.976
20 | TGAAAGCAAG | 1.2
21 | TGAAAGTGTA | 1.08
22 | TGAAATTTGA | 1.03
23 | TGAACAGATT | 1.16
24 | TGAACCAACC | 1.23
25 | TGAACCGCGG | 0.987
26 | TGAACGTCGA | 1.1

Row | Sequence | switch fluorescence ratio
27 | TGAACTATTG | 1.03
28 | TGAACTTAAG | 1.02
29 | TGAACTTTAG | 1.05
30 | TGAAGAACCT | 1.16
31 | TGAAGATCGG | 0.956
32 | TGAAGATCTT | 0.974
33 | TGAAGCCATA | 1.08
34 | TGAAGGCGT | 1
35 | TGAAGGCTCC | 1.08
36 | TGAAGGTGTA | 1.05
37 | TGAAGTCCGT | 1.02
38 | TGAAGTTGTG | 0.98
39 | TGAATAAAAA | 1.09
40 | TGAATATGGA | 0.994
41 | TGAATGACTT | 1.07
42 | TGAATGAT | 1.01
43 | TGAATGGAA | 0.997
44 | TGAATTCTGT | 1.04
45 | TGAATTGCGG | 1
46 | TGACAAGGGT | 0.975
47 | TGACACGCA | 1.11
48 | TGACACTAGA | 1.02
49 | TGACATCGTT | 1.03
50 | TGACATGCCT | 1.08
51 | TGACCAATAT | 1.57
52 | TGACCATTTA | 0.988

Row | Sequence | switch fluorescence ratio
53 | TGACCCATTG | 0.995
54 | TGACCCGCCA | 1.5
55 | TGACCGCCTG | 1.03
56 | TGACCTCGAG | 0.955
57 | TGACGCCCGG | 1.02
58 | TGACGGTTCG | 1.1
59 | TGACGTATGT | 1.01
60 | TGACGTCCG | 1.06
61 | TGACTAGGGC | 1.02
62 | TGACTGCTGC | 1.06
63 | TGACTGTGGT | 0.981
64 | TGACTTCTAG | 0.99
65 | TGAGAAACAA | 1.01
66 | TGAGAACTCT | 0.96
67 | TGAGAACTGT | 1.02
68 | TGAGAATTTC | 1.01
69 | TGAGACCTGT | 1.03
70 | TGAGAGGTCG | 1.05
71 | TGAGAGGTGT | 1.04
72 | TGAGAGTATA | 1.05
73 | TGAGATCAAA | 1.03
74 | TGAGATGTCA | 0.972
75 | TGAGCACATC | 1.39
76 | TGAGCACGTC | 0.975
77 | TGAGCATAGG | 1.04
78 | TGAGCGTTCT | 1

Row | Sequence | switch fluorescence ratio
79 | TGAGCTGATC | 1.28
80 | TGAGGACATG | 0.966
81 | TGAGGCCTA | 1.09
82 | TGAGGCGGTG | 0.975
83 | TGAGGGCGT | 1.05
84 | TGAGGGGCAT | 1.02
85 | TGAGGGTAGG | 0.974
86 | TGAGGGTGCC | 1.04
87 | TGAGGTAAAG | 0.965
88 | TGAGGTAACA | 0.975
89 | TGAGGTTACA | 1.04
90 | TGAGTACCGT | 1
91 | TGAGTACTAA | 1.05
92 | TGAGTATGA | 1.03
93 | TGAGTATTCC | 1.05
94 | TGAGTCTTAG | 1.01
95 | TGAGTGCCCT | 1
96 | TGAGTTAGCA | 0.978
97 | TGAGTTCTAA | 1.03
98 | TGAGTTTAGT | 1
99 | TGATAAGACT | 1.01
100 | TGATAGAATG | 0.925
101 | TGATAGCAGA | 0.963

— the supplement of paper PMC10126150
